# Laboratory results taken from the supplement of paper PMC12217912.
# The list shows a part of the results. Sequences were assembled here from the parent chain. Inactive controls read about 0.05.
# B1: TEV protease; numbered along this chain (parent)
# chain: MGESLFKGPRDYNPISSSICHLTNESDGHTTSLYGIGFGPFIITNKHLFRRNNGTLVVQSLHGVFKVKDTTTLQQHLVDGRDMIIIRMPKDFPPFPQKLKFREPQREERICLVTTNFQTKSMSSMVSDTSCTFPSGDGIFWKHWIQTKDGQCGSPLVSTRDGFIVGIHSASNFTNTNNYFTSVPKNFMELLTNQEAQQWVSGWRLNADSVLWGGHKVFMVKPEEPFQPVKEATQL
# Variants of: B1
# Assay: raw area under fraction-flipped curve 0-4 h after induction (AUC4h, not background-subtracted), DNA-recorder readout of cleavage of the substrate (dimensionless); higher = more cleavage of the substrate by the protease variant
# Settings: temperature: 34 °C; time window: 0-4 h after rhamnose induction
# Protocol: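 In vivo DNA recorder in E. coli TOP10(DE3) ΔrhaA at 34 °C. Each TEVp single-site mutant (parent TEVp 0) is paired with a single-site variant of the 7-mer TEVs (canonical ENLYFQ|S). The substrate sits between flexible linkers in a Bxb1-sfGFP-TEVs-SsrA fusion, so cleavage stabilises Bxb1 and speeds flipping of a recombination array, read by NGS. The value is the raw area under the fraction-flipped curve over 0-4 h after rhamnose induction (AUC4h), with ≥20 reads per time point. It is not background-subtracted; inactive controls average about 0.047.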
# 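Further: Bxb1 expression induced with 0.2% (w/v) L-rhamnose at OD600 near 0.5, cultures sampled hourly, flipped fraction per protease–substrate barcode pair counted by paired-end Illumina sequencing.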
Variant,area with substrate ENLAFQS,area with substrate ENLCFQS,area with substrate ENLDFQS,area with substrate ENLEFQS,area with substrate ENLFFQS,area with substrate ENLHFQS,area with substrate ENLKFQS,area with substrate ENLLFQS,area with substrate ENLNFQS,area with substrate ENLPFQS,area with substrate ENLQFQS,area with substrate ENLRFQS,area with substrate ENLVFQS,area with substrate ENLWFQS,area with substrate ENLMFQS,area with substrate ENLSFQS,area with substrate ENLTFQS,area with substrate ENLIFQS,area with substrate ENLGFQS
G213K,0.059,0.0503,0.0717,0.0623,0.062,0.061,0.063,0.0594,0.0614,0.0702,0.056,0.0666,0.0621,0.0721,–,–,–,–,–
G213A,0.0422,–,0.0694,0.0596,0.0559,0.0563,0.0616,0.0674,0.0681,0.0672,0.0488,0.0582,–,–,0.0648,0.0546,–,–,–
M188T,0.0753,–,0.0719,0.0706,–,0.0698,0.082,0.0676,0.0648,–,0.0768,–,–,–,–,0.0555,0.0626,–,–
R204N,0.0522,0.0718,0.0662,–,0.0838,0.0676,0.0838,0.0807,0.0622,–,0.071,0.0746,0.0826,0.0685,0.0788,–,–,0.0853,–
E195D,0.0576,0.0784,0.0772,0.045,0.0946,0.07,–,0.0562,0.0704,0.0574,–,–,–,–,0.068,0.0546,–,–,0.064
P222G,0.0676,–,0.0739,0.0653,0.0647,–,0.0745,0.0806,0.0679,0.063,0.0436,0.107,0.0696,–,0.06,0.0822,–,0.0761,–
T192P,0.0588,–,0.0605,0.0716,0.0717,0.0656,0.0766,–,0.0647,0.0537,0.0813,0.0499,0.054,–,0.078,0.0567,–,–,0.0805
T192Y,0.0601,–,–,–,–,0.0535,0.0741,–,–,0.046,–,0.0685,–,–,–,0.0685,–,–,–
V229Y,0.0786,–,0.0612,0.0569,0.105,0.0726,0.0729,0.0558,0.0555,0.0467,0.0642,0.0786,0.0674,0.0715,–,0.0585,–,–,0.0717
V229L,0.0632,–,0.0475,0.059,0.0817,0.0779,0.0764,0.0483,0.0585,0.0538,0.068,0.0242,0.0901,0.0492,–,0.0722,–,0.0694,–
S182W,0.0506,0.0733,0.0626,0.0662,–,–,–,–,–,–,0.0546,–,–,0.0606,0.0642,0.0711,0.0574,0.051,0.0746
L191T,0.0742,–,0.0552,0.0547,0.0798,0.0537,0.0646,0.0677,0.0472,0.0468,0.058,–,–,–,0.0498,0.0739,–,–,0.0598
E224T,0.0718,0.0682,0.0436,–,0.0762,0.0617,0.0848,0.0596,0.0665,0.0639,0.0586,0.0696,–,0.0642,–,–,0.0755,0.0751,–
E224P,0.0637,–,0.0645,0.0469,0.082,0.0698,0.0782,–,0.0583,0.0616,0.0728,0.0636,0.0853,0.0699,0.0669,0.0489,0.0643,–,0.0757
F226Y,0.0755,0.0729,0.0618,0.0514,0.0938,–,0.0781,–,0.075,0.0376,0.0667,–,–,0.0584,–,0.0579,–,0.0862,0.0548
P225T,0.0756,0.0631,0.0617,0.0666,0.0651,0.0651,0.0764,0.0676,0.0635,–,0.0711,0.079,0.0965,–,0.101,–,–,0.0914,–
P225R,0.0457,0.0627,0.0642,0.0934,0.114,0.0719,0.0655,0.0613,0.0658,0.0652,0.0755,0.0679,–,0.0808,0.0724,0.0607,0.105,0.0787,0.0623
E189D,0.0625,0.0648,0.0695,–,0.0814,0.0719,0.0786,0.0596,0.065,0.0514,–,–,–,–,0.0773,0.0633,–,0.0874,–
E189I,0.0639,–,0.0639,0.0653,–,0.0839,0.0814,–,–,0.0335,–,–,0.0981,–,–,0.0618,–,–,–
W212M,0.0821,0.11,0.0704,0.0723,0.0914,0.102,0.0922,0.0552,0.0671,0.0601,0.0607,0.0699,–,–,–,0.044,–,–,–
V210K,0.0547,0.067,0.065,0.0544,0.0662,0.0633,0.101,–,0.0474,0.0479,–,0.0669,0.0563,–,–,0.0874,0.0645,0.0499,0.0819
V210D,0.056,0.0593,0.0612,0.0686,0.0732,–,0.07,0.0415,0.0656,0.0692,–,0.0768,–,0.0453,0.047,0.0472,–,–,0.0693
S209C,0.0707,–,0.0674,0.0662,0.11,0.0714,0.0877,–,0.0642,–,0.073,0.0932,–,0.0882,0.086,–,0.0724,–,0.0635
Q198Y,0.059,0.062,0.0623,0.0533,0.0741,0.0709,0.0628,0.0518,0.0588,0.0654,0.0622,0.0682,0.0801,0.0633,0.0665,0.0376,–,0.0773,0.0636
F218S,0.0646,–,0.0757,0.0612,0.0816,0.0595,0.0777,0.0853,–,0.0615,–,–,–,0.0651,–,–,0.0763,0.0679,0.0486
F218G,0.0378,0.0649,0.0632,–,0.0639,0.0512,0.0661,–,0.0659,–,–,0.0938,–,–,–,–,–,–,–
